Measurements as given in publication PMC4336329 (PLoS ONE, 2015).
About 14,000 (4.5%) of roughly 310,000 compounds showed an effect of 50% or more. The effect is printed as a negative number. The list shows a part of the results.

The molecules below were run against human ether-à-go-go-related gene (hERG) potassium channel (human, UniProt Q12809) (assay: primary screen, population patch clamp on CHO cells stably expressing hERG).
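Further: peak tail current of the secondary pulse compared with the same well before compound.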

Chain of human ether-à-go-go-related gene (hERG) potassium channel (Q12809 whole entry, looked up): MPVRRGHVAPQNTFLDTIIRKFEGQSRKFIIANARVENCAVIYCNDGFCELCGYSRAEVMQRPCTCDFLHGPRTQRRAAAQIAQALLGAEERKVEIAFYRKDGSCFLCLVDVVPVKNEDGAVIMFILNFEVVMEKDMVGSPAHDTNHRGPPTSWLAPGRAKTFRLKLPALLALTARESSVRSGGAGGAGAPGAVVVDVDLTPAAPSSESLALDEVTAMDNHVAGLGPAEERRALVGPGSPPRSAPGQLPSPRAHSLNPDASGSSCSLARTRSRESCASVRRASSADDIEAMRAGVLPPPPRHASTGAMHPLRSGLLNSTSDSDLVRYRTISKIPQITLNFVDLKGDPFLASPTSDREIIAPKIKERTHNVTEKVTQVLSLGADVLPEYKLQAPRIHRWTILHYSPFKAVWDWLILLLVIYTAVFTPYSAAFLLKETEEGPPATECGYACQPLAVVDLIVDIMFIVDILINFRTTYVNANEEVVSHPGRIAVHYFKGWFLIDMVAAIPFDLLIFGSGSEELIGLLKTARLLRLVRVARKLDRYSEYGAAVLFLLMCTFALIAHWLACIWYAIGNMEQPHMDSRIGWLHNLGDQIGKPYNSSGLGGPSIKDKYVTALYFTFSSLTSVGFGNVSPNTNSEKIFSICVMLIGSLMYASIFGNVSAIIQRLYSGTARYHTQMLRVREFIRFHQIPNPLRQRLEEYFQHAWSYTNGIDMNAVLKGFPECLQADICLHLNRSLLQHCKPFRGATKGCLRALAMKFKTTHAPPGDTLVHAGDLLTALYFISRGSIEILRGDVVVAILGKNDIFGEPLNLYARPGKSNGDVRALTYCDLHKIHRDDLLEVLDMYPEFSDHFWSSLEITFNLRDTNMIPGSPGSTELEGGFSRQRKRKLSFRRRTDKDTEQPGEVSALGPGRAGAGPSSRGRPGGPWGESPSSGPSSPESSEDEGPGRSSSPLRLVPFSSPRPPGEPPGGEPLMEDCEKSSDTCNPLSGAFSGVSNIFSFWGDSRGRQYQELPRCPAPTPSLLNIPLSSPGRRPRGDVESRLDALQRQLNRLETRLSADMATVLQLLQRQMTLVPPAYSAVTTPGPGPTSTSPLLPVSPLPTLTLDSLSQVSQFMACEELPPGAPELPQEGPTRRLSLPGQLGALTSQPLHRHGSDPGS

In order of falling “hERG current change (%, negative = inhibition) at 10uM” value:
1. CCc1cc2c(COC(=O)c3c(C)noc3C)cc(=O)oc2cc1O  32.8%
2. Clc1ccc2nc3c4ccccc4cnn3c2c1  24.2%
3. Cc1nn(CCc2n[nH]c(=S)n2-c2cccc(Cl)c2)c(C)c1[N+](=O)[O-]  22.4%
4. Cc1cccc(C)c1NC(=O)CNCC(=O)N(C)C  21%
5. Cc1nc2c(-c3ccccc3)c(C)nn2c(N)c1-c1ccccc1  19.4%
6. COc1ccc(Cl)cc1C(=O)Nc1nc2ccc(S(C)(=O)=O)cc2s1  18.7%
7. O=C(CNS(=O)(=O)c1ccccc1)NCC(=O)N1CCCCC1  17.2%
8. CCCNC(=O)COC(=O)c1ccccc1C(=O)N(C)C1CCCCC1  14.6%
9. CCOC(=O)c1ccc(N2C(=O)C=C(N3CCOCC3)C2=O)cc1  14.5%
10. N#CCCN(CCC#N)C(=O)C1c2ccccc2Oc2ccccc21  14.4%
11. COC(=O)CCS(=O)(=O)c1ccc(NC(C)=O)cc1  13.3%
12. O=C(COc1ccc2ccc(=O)oc2c1)NCc1ccccn1  11.8%
13. CCCS(=O)(=O)N1CCCC(C(=O)NCCCN2CCCC2=O)C1 (stereo not shown)  11.6%
14. COCc1cc(C)nc(SCC(=O)Nc2ccc3[nH]c(=O)[nH]c3c2)c1C#N  10.8%
15. CCCCC(Nc1ncnc2ccccc12)C(=O)O (stereo not shown)  9.93%
16. COc1ccc(C(=O)n2nnc3ccccc32)cc1Br  9.24%
17. Cc1ccc(Cl)cc1NS(=O)(=O)c1ccc2c(c1)NC(=O)C(C)C(=O)N2 (stereo not shown)  8.89%
18. Cc1cc(-c2ccc(F)cc2)nc2cc(C(N)=O)nn12  8.55%
19. COc1ccc(-c2cn3cccnc3n2)cc1NC(=O)C(C)Oc1ccccc1 (stereo not shown)  8.13%
20. COc1ccccc1C1=NOC(Cn2c(=O)c3c(ncn3C)n(C)c2=O)C1 (stereo not shown)  8.13%
21. COc1ccc(C)cc1NC(=O)CCNS(=O)(=O)c1cccc2nonc12  7.7%
22. CC(C)Nc1nc2ccccc2c(=O)[nH]1  7.43%
23. Cc1onc(-c2ccccc2)c1C(=O)/C=C/N(C)C  7.42%
24. CCOC(=O)CSc1nnc(NC(=O)c2cccc([N+](=O)[O-])c2C)s1  7.4%
25. CCCCCCCCNC(CO)(CO)CO  7.1%
26. CCOc1ccc(NC(=O)N(CCN(C)C)C(C)c2cccnc2)cc1 (stereo not shown)  6.87%
27. COc1ccc(/C=C(\C#N)C(=O)Nc2ccc3[nH]c(=O)[nH]c3c2)cc1  6.81%
28. O=C(O)c1cc(S(=O)(=O)N2CCCC2)ccc1Br  5.36%
29. CC1(C)CC(=O)N(Cc2ccccc2)C(=O)C1  5.15%
30. Cc1ccc(C)c(OCCC(=O)Nc2cccc(S(=O)(=O)N3CCCC3)c2)c1  4.94%
31. CC(=O)Nc1ccc(C(=O)N2CC(=O)NC(=O)C2)cc1  4.71%
32. O=C(CCc1ccccc1)Nc1ccc(S(=O)(=O)N2CCCC2)cc1  4.69%
33. Cc1cc([N+](=O)[O-])c(NC2CCCCC2)c([N+](=O)[O-])c1  3.72%
34. COc1ccc2[nH]c3c(=O)n(/N=C/[C@H]4C(C)C=C(C)CC4C)c(=O)[nH]c3c2c1 (stereo partly shown)  3.22%
35. O=C(NC1CCCCCCC1)c1cnccn1  1.67%
36. CCS(=O)(=O)c1ccc(Sc2nncn2C)c([N+](=O)[O-])c1  1.59%
37. N#Cc1c(-c2ccccc2)nc(N2CCOCC2)[nH]c1=O  0.326%
38. CCc1ccccc1Nc1nn2c(=O)c3ccc(C(=O)NCc4ccccn4)cc3nc2s1  -4.54%
39. CC(C)(C)C(=O)Nc1ccccc1C(=O)Nc1cc(Cl)ccc1Cl  -4.7%
40. CCc1ccc(NS(=O)(=O)c2cc(OC)ccc2OC)cc1  -7.37%
41. COCCNC(=O)c1ccc(CSCc2cccc(Cl)c2)o1  -7.69%
42. CCOc1ccccc1N1CC(C(=O)Nc2cc(Cl)ccc2C)CC1=O (stereo not shown)  -8.64%
43. O=C(c1cccc(S(=O)(=O)N2CCCC2)c1)N1CCN(c2ncccn2)CC1  -8.91%
44. CC1CCCN(C(C(=O)NC2CCCCC2)c2cc3c(cc2[N+](=O)[O-])OCO3)C1 (stereo not shown)  -9.77%
45. COc1ccc(C)cc1NC(=S)N1CC(C)OC(C)C1 (stereo not shown)  -11.5%
46. O=C(C(=O)N1CCOCC1)c1cn(CCCOc2ccccc2)c2ccccc12  -13.1%
47. CN(C)CCn1c2c(c(SCC(=O)Nc3cccc4ccccc34)nc1=O)CCC2  -13.6%
48. Cc1ccc(CCNC(=O)CSCc2ccc(F)cc2)cc1  -14.1%
49. CC(C)Oc1cccc(-c2cc(C(=O)N3CCN(c4ncccn4)CC3)c3ccccc3n2)c1  -16.9%
50. O=C1CCc2cc(S(=O)(=O)Nc3cccc(F)c3)cc3c2N1CC3  -17.5%
51. CC(C)(C)OC(=O)N1CCCN(C(=O)Nc2ccc(OC(F)(F)F)cc2)CC1  -22.6%
52. CN(CC(=O)Nc1ccc(Cl)c(C(F)(F)F)c1)C(=O)Cc1cccs1  -23%
53. Cc1ccc(CN(C(=O)COc2ccc(Br)cc2)C2CCS(=O)(=O)C2)o1 (stereo not shown)  -33.5%
54. CCCOc1ccc(C2C(=O)N(C3CCCCCC3)CC(=O)N2Cc2ccco2)cc1OC (stereo not shown)  -36.7%
55. CCOc1ccc(Cl)cc1CNCCCSc1ncccn1  -37.3%
56. COc1ccc(N(CC(=O)NCc2ccc(Cl)cc2)S(=O)(=O)c2c(C)nn(C)c2C)cc1  -41.4%
57. Cn1cc(CN2CCCC(C(=O)Nc3ccc(-c4cccc(F)c4)cc3)C2)cn1 (stereo not shown)  -43.9%
58. COc1cccc(OCC(=O)Nc2c3c(nn2-c2ccccc2)CS(=O)(=O)C3)c1  -48.5%
